# Measurements reported in the supplement of paper PMC10724272.
# Compound: C[C@@H](c1ncncc1F)[C@](O)(Cn1cncn1)c1ccc(F)cc1F [voriconazole]
# Assay: CLSI broth microdilution.
row,Test System,MIC
1,"Candida tropicalis isolate 149 (ERG11 copies: 8, Erg11p: Y132F, S154F (heterozygous))",≥ 8 mg/L [R]
2,"Candida tropicalis isolate 187 (ERG11 copies: 2, Erg11p: no key change)",0.5 mg/L
3,"Candida tropicalis isolate 436 (ERG11 copies: 2, Erg11p: no key change)",0.03 mg/L [S]
4,"Candida tropicalis isolate 50 (ERG11 copies: 2, Erg11p: no key change)",0.12 mg/L [S]
5,"Candida tropicalis isolate 148 (ERG11 copies: 2, Erg11p: no key change)",0.5 mg/L
6,"Candida tropicalis isolate 298 (ERG11 copies: 2, Erg11p: no key change)",0.25 mg/L
7,"Candida tropicalis isolate 346 (ERG11 copies: 9, Erg11p: Y132F, S154F (heterozygous))",≥ 8 mg/L [R]
8,"Candida tropicalis isolate 78 (ERG11 copies: 8, Erg11p: Y132F, S154F (heterozygous))",≥ 8 mg/L [R]
9,"Candida tropicalis isolate 221 (ERG11 copies: 2, Erg11p: no key change)",0.25 mg/L
10,"Candida tropicalis isolate 341 (ERG11 copies: 2, Erg11p: Y132F, S154F (heterozygous))",0.25 mg/L
11,"Candida tropicalis isolate 37 (ERG11 copies: 2, Erg11p: no key change)",4 mg/L [R]
12,"Candida tropicalis isolate 95 (ERG11 copies: 2, Erg11p: no key change)",0.5 mg/L
13,"Candida tropicalis isolate 45 (ERG11 copies: 2, Erg11p: no key change)",0.25 mg/L
14,"Candida tropicalis isolate 404 (ERG11 copies: 2, Erg11p: no key change)",0.25 mg/L
15,"Candida tropicalis isolate 44 (ERG11 copies: 2, Erg11p: no key change)",1 mg/L [R]
16,"Candida tropicalis isolate 286 (ERG11 copies: 2, Erg11p: no key change)",0.06 mg/L [S]
17,"Candida tropicalis isolate 30 (ERG11 copies: 2, Erg11p: no key change)",0.06 mg/L [S]
18,"Candida tropicalis isolate 285 (ERG11 copies: 2, Erg11p: no key change)",0.25 mg/L

row,Test System,MIC
1,"Candida tropicalis isolate 28 (ERG11 copies: 2, Erg11p: no key change)",0.12 mg/L [S]
2,"Candida tropicalis isolate 334 (ERG11 copies: 2, Erg11p: no key change)",0.25 mg/L
3,"Candida tropicalis isolate 121 (ERG11 copies: 2, Erg11p: no key change)",0.06 mg/L [S]
4,"Candida tropicalis isolate 287 (ERG11 copies: 2, Erg11p: no key change)",0.12 mg/L [S]
5,"Candida tropicalis isolate 20 (ERG11 copies: 8, Erg11p: Y132F, S154F (heterozygous))",0.25 mg/L
6,"Candida tropicalis isolate 65 (ERG11 copies: 2, Erg11p: no key change)",0.06 mg/L [S]
7,"Candida tropicalis isolate 282 (ERG11 copies: 2, Erg11p: no key change)",0.06 mg/L [S]
8,"Candida tropicalis isolate 183 (ERG11 copies: 2, Erg11p: no key change)",0.06 mg/L [S]
9,"Candida tropicalis isolate 353 (ERG11 copies: 2, Erg11p: no key change)",0.12 mg/L [S]
10,"Candida tropicalis isolate 189 (ERG11 copies: 2, Erg11p: no key change)",≥ 8 mg/L [R]
11,"Candida tropicalis isolate 76 (ERG11 copies: 8, Erg11p: Y132F, S154F (heterozygous))",≥ 8 mg/L [R]
12,"Candida tropicalis isolate 440 (ERG11 copies: 5, Erg11p: Y132F, S154F (heterozygous))",≥ 8 mg/L [R]
13,"Candida tropicalis isolate 405 (ERG11 copies: 2, Erg11p: Y132F, S154F (homozygous))",2 mg/L [R]
14,"Candida tropicalis isolate 378 (ERG11 copies: 8, Erg11p: Y132F, S154F (heterozygous))",≥ 8 mg/L [R]
15,"Candida tropicalis isolate 427 (ERG11 copies: 2, Erg11p: no key change)",0.12 mg/L [S]
16,"Candida tropicalis isolate 205 (ERG11 copies: 6, Erg11p: Y132F, S154F (heterozygous))",4 mg/L [R]
17,"Candida tropicalis isolate 352 (ERG11 copies: 2, Erg11p: no key change)",0.25 mg/L
18,"Candida tropicalis isolate 374 (ERG11 copies: 2, Erg11p: no key change)",0.12 mg/L [S]

# Compound: Nc1[nH]c(=O)ncc1F [flucytosine]
# Assay: CLSI broth microdilution.
row,Test System,MIC
1,"Candida tropicalis isolate 149 (ERG11 copies: 8, Erg11p: Y132F, S154F (heterozygous))",≤ 0.06 mg/L [S]
2,"Candida tropicalis isolate 187 (ERG11 copies: 2, Erg11p: no key change)",0.25 mg/L [S]
3,"Candida tropicalis isolate 436 (ERG11 copies: 2, Erg11p: no key change)",≤ 0.06 mg/L [S]
4,"Candida tropicalis isolate 50 (ERG11 copies: 2, Erg11p: no key change)",≤ 0.06 mg/L [S]
5,"Candida tropicalis isolate 148 (ERG11 copies: 2, Erg11p: no key change)",≤ 0.06 mg/L [S]
6,"Candida tropicalis isolate 298 (ERG11 copies: 2, Erg11p: no key change)",≤ 0.06 mg/L [S]
7,"Candida tropicalis isolate 346 (ERG11 copies: 9, Erg11p: Y132F, S154F (heterozygous))",≤ 0.06 mg/L [S]
8,"Candida tropicalis isolate 78 (ERG11 copies: 8, Erg11p: Y132F, S154F (heterozygous))",≤ 0.06 mg/L [S]
9,"Candida tropicalis isolate 221 (ERG11 copies: 2, Erg11p: no key change)",≤ 0.06 mg/L [S]
10,"Candida tropicalis isolate 341 (ERG11 copies: 2, Erg11p: Y132F, S154F (heterozygous))",≤ 0.06 mg/L [S]
11,"Candida tropicalis isolate 37 (ERG11 copies: 2, Erg11p: no key change)",≤ 0.06 mg/L [S]
12,"Candida tropicalis isolate 95 (ERG11 copies: 2, Erg11p: no key change)",≤ 0.06 mg/L [S]
13,"Candida tropicalis isolate 45 (ERG11 copies: 2, Erg11p: no key change)",0.12 mg/L [S]
14,"Candida tropicalis isolate 404 (ERG11 copies: 2, Erg11p: no key change)",0.12 mg/L [S]
15,"Candida tropicalis isolate 44 (ERG11 copies: 2, Erg11p: no key change)",0.12 mg/L [S]
16,"Candida tropicalis isolate 286 (ERG11 copies: 2, Erg11p: no key change)",≤ 0.06 mg/L [S]
17,"Candida tropicalis isolate 30 (ERG11 copies: 2, Erg11p: no key change)",≤ 0.06 mg/L [S]
18,"Candida tropicalis isolate 285 (ERG11 copies: 2, Erg11p: no key change)",≤ 0.06 mg/L [S]

row,Test System,MIC
1,"Candida tropicalis isolate 28 (ERG11 copies: 2, Erg11p: no key change)",≤ 0.06 mg/L [S]
2,"Candida tropicalis isolate 334 (ERG11 copies: 2, Erg11p: no key change)",≤ 0.06 mg/L [S]
3,"Candida tropicalis isolate 121 (ERG11 copies: 2, Erg11p: no key change)",≤ 0.06 mg/L [S]
4,"Candida tropicalis isolate 287 (ERG11 copies: 2, Erg11p: no key change)",0.5 mg/L [S]
5,"Candida tropicalis isolate 20 (ERG11 copies: 8, Erg11p: Y132F, S154F (heterozygous))",≤ 0.06 mg/L [S]
6,"Candida tropicalis isolate 65 (ERG11 copies: 2, Erg11p: no key change)",≤ 0.06 mg/L [S]
7,"Candida tropicalis isolate 282 (ERG11 copies: 2, Erg11p: no key change)",≤ 0.06 mg/L [S]
8,"Candida tropicalis isolate 183 (ERG11 copies: 2, Erg11p: no key change)",≤ 0.06 mg/L [S]
9,"Candida tropicalis isolate 353 (ERG11 copies: 2, Erg11p: no key change)",≤ 0.06 mg/L [S]
10,"Candida tropicalis isolate 189 (ERG11 copies: 2, Erg11p: no key change)",≤ 0.06 mg/L [S]
11,"Candida tropicalis isolate 76 (ERG11 copies: 8, Erg11p: Y132F, S154F (heterozygous))",≤ 0.06 mg/L [S]
12,"Candida tropicalis isolate 440 (ERG11 copies: 5, Erg11p: Y132F, S154F (heterozygous))",≤ 0.06 mg/L [S]
13,"Candida tropicalis isolate 405 (ERG11 copies: 2, Erg11p: Y132F, S154F (homozygous))",≤ 0.06 mg/L [S]
14,"Candida tropicalis isolate 378 (ERG11 copies: 8, Erg11p: Y132F, S154F (heterozygous))",≤ 0.06 mg/L [S]
15,"Candida tropicalis isolate 427 (ERG11 copies: 2, Erg11p: no key change)",≤ 0.06 mg/L [S]
16,"Candida tropicalis isolate 205 (ERG11 copies: 6, Erg11p: Y132F, S154F (heterozygous))",≤ 0.06 mg/L [S]
17,"Candida tropicalis isolate 352 (ERG11 copies: 2, Erg11p: no key change)",≤ 0.06 mg/L [S]
18,"Candida tropicalis isolate 374 (ERG11 copies: 2, Erg11p: no key change)",≤ 0.06 mg/L [S]

# Compound: CCCCCOc1ccc(-c2cc(-c3ccc(C(=O)N[C@H]4C[C@@H](O)[C@@H](O)NC(=O)[C@@H]5[C@@H](O)[C@@H](C)CN5C(=O)[C@H]([C@H](O)CC(N)=O)NC(=O)[C@H]([C@H](O)[C@@H](O)c5ccc(O)c(OS(=O)(=O)O)c5)NC(=O)[C@@H]5C[C@@H](O)CN5C(=O)[C@H]([C@@H](C)O)NC4=O)cc3)no2)cc1 [micafungin]
# Assay: CLSI broth microdilution.
row,Test System,MIC
1,"Candida tropicalis isolate 149 (ERG11 copies: 8, Erg11p: Y132F, S154F (heterozygous))",0.03 mg/L [S]
2,"Candida tropicalis isolate 187 (ERG11 copies: 2, Erg11p: no key change)",0.06 mg/L [S]
3,"Candida tropicalis isolate 436 (ERG11 copies: 2, Erg11p: no key change)",0.03 mg/L [S]
4,"Candida tropicalis isolate 50 (ERG11 copies: 2, Erg11p: no key change)",0.03 mg/L [S]
5,"Candida tropicalis isolate 148 (ERG11 copies: 2, Erg11p: no key change)",0.06 mg/L [S]
6,"Candida tropicalis isolate 298 (ERG11 copies: 2, Erg11p: no key change)",0.03 mg/L [S]
7,"Candida tropicalis isolate 346 (ERG11 copies: 9, Erg11p: Y132F, S154F (heterozygous))",0.03 mg/L [S]
8,"Candida tropicalis isolate 78 (ERG11 copies: 8, Erg11p: Y132F, S154F (heterozygous))",0.03 mg/L [S]
9,"Candida tropicalis isolate 221 (ERG11 copies: 2, Erg11p: no key change)",0.03 mg/L [S]

# MIC of invasive clinical C. tropicalis isolates, CLSI broth microdilution (fluconazole 0.12-256 mg/L, up to 1,024 for the azole-resistant cluster and its neighbour group; other ranges not stated); higher = less susceptible. Call: susceptible or wild type [S] / resistant or non-wild type [R] by CLSI breakpoints or cut-offs; intermediate and dose-dependent carry no call. '<=' and '>=' at the end values are inferred; the source marks only some of them. Isolates are numbered anew.
